# Test results reported in PubChem BioAssay AID662 (National Center for Advancing Translational Sciences (NCATS), 2007).
# Out of some 71,000 compounds screened, about 1,800 (2.5%) were called active. This list was built around the results that the source calls inconclusive (neither active nor inactive); the mix of calls is not that of the screen. Calls come from the whole dose curve; as a rule, active = well fitted activation curve with a large enough effect in the signal ratio, with a control signal flat (not every such curve was filed as active); inconclusive = small, poorly fitted or top-dose-only effect, or effect the other way, or a change in a side signal; inactive = flat fitted curve, though single readings scatter; the % refers to the signal ratio. Potencies beside an inconclusive call are fits to weak or partial responses and may not hold up.
# Assay: Cell signaling CRE-BLA (Fsk stim); for activity change, negative = inhibition: % of control where 0% means no effect
# Conditions: CHO CRE-bla reporter (cAMP response element driving beta-lactamase), forskolin EC10, beta-lactamase ratio; activity change, negative = inhibition: at 38.2 µM (top of the series) unless noted
# Outline: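 Modulation of forskolin signalling: compounds in titration series added with EC10 NKH 477 to CHO cells carrying a CRE-driven beta-lactamase reporter, 3 h, 37C. CCF4 FRET ratio (460/530 nm, ex 405 nm) gives %activity and AC50.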
# Potency is the fitted concentration of half-maximal effect; tags give direction and shape of the fitted curve.
SMILES,"activity change, negative = inhibition",Potency
COCCn1c(=O)[nH]c2cc(C(=O)NC3CCCCCC3)ccc2c1=O,inactive,–
Cc1ccc(-n2c(N)c(C(=O)N3CCCCC3)sc2=S)cc1,inactive,–
COCC(=O)N1CCC2(CCCN(Cc3cc(C(F)(F)F)cc(C(F)(F)F)c3)C2)CC1,inactive,–
NC(=O)CC1NC(=O)c2ccccc21 (stereo not drawn),inactive,–
Cc1ccc2c(CN3CCN(Cc4ccc5c(c4)OCO5)CC3)cc(=O)oc2c1C,inactive,–
CCOc1cccc(C(=O)N(Cc2ccco2)C2CCS(=O)(=O)C2)c1 (stereo not drawn),inconclusive: -7.04%,–
FC(F)(F)c1cc(CN2CC[C@@]3(CCCNC3)C2)cc(C(F)(F)F)c1,inactive,–
COC(=O)c1cc(OC)c(OC)cc1NC(=O)CN1CCCCC1,inconclusive: 0.527%,–
CCOC(=O)C1CCN(C(c2cc3ccc(C)c(C)c3[nH]c2=O)c2nnnn2C2CCCCC2)CC1 (stereo not drawn),inactive,–
COc1cc(C2C(C#N)=C(C)NC3=C2C(=O)c2ccccc23)cc(OC)c1OC (stereo not drawn),–,"inconclusive: 0.398 µM [rising, full curve]"
COc1ccccc1C(=O)N1CCCC(c2nc(-c3cc(OC)c(OC)c(OC)c3)no2)C1 (stereo not drawn),–,"inconclusive: 10 µM [rising, partial curve]"
Cc1cccc(CCNS(=O)(=O)c2cnc[nH]2)c1,–,"inconclusive: 0.2 µM [falling, partial curve]"
Cc1cnc(CNc2ncncc2-c2cccnc2)cn1,inactive,–
Cn1c(Br)nc2c1c(=O)n(CC(O)COc1ccccc1)c(=O)n2C (stereo not drawn),inconclusive: 28.6%,–
CN1CCN(C(=O)c2cc(-c3ccccc3)on2)CC1,inconclusive: 5.16%,–
c1ccc(-c2cnnc(SCc3cn4cccnc4n3)n2)cc1,–,active: 10 µM
COc1ccc2c(Cc3c4ccccc4cc4ccccc34)cncc2c1O,inactive: 14.8% [at 7.6 µM],–
CCc1cc2c(N3CCN(c4nnc(CC)s4)CC3)ncnc2s1,inconclusive: -28.2%,–
Cc1cc(C)n(-c2ccc(C(=O)OCn3nnc4ccccc4c3=O)cc2)n1,inconclusive: 17.4%,–
O=C(O)CCC(=O)N1CCc2cc(S(=O)(=O)NC3CCCC3)ccc21,inconclusive: 26.7%,–
CCN(CC)CCCn1c(=S)[nH]c2ccc(Cl)cc2c1=O,inconclusive: -3.78%,–
COc1cccc(CC(=O)NCC2COc3ccccc3O2)c1OC (stereo not drawn),inconclusive: -7.64%,–

SMILES,"activity change, negative = inhibition",Potency
O=C(CCCOc1ccccc1)Nc1nccs1,inconclusive: -17%,–
Cc1ccc(S(=O)(=O)NC(CN2CCOCC2)=NCCNS(=O)(=O)c2ccccc2)cc1,inconclusive: -25.4%,–
COc1ccc(NC(=O)N2CC[C@@]3(CCCN(C(=O)c4cnccn4)C3)C2)cc1,inactive,–
CCOC(=O)C1=C(N)OC2=C(C(=O)CC(C)(C)C2)C1c1cccnc1 (stereo not drawn),inactive,–
CC(=O)Nc1nc2n(n1)C(c1ccc(Cl)cc1)C=C(C)N2 (stereo not drawn),inconclusive: 23.2%,–
O=c1c2oc3ccccc3c2ncn1Cc1ccccc1F,–,"inconclusive: 10 µM [rising, partial curve]"
CC(=O)Nc1c(Cl)n(C(C)=O)c2ccccc12,inactive,–
COc1ccc(CNC(=O)C2COc3ccccc3O2)c(OC)c1 (stereo not drawn),inactive,–
Cc1nc2c([nH]1)c(=O)n(C)c(=O)n2Cc1ccco1,inconclusive: 26.6%,–
COc1ccc(-c2cc3nc(C)cc(NCCO)n3n2)cc1,–,"inconclusive: 12.6 µM [rising, partial curve]"
CC(=O)OCC1OC(n2ccc(=O)[nH]c2=O)C(O)C1O (stereo not drawn),inconclusive: 8.16%,–
COc1cccc(C(=O)Nc2cccc(-c3nnc(-c4ccccc4)o3)c2)c1,inconclusive: -12.1%,–
Cc1nc(SCC(=O)N2CCCc3ccccc32)c2oc3ccccc3c2n1,–,active: 0.501 µM
COc1cccc(-c2nnc(NC(=O)c3ccc(S(=O)(=O)N4CC(C)OC(C)C4)cc3)o2)c1 (stereo not drawn),inactive,–
O=C(NCCCNC(=O)c1cccs1)c1cccs1,inactive,–
CC1(C)Cc2c(C#N)c(N3CCCC3)nc(-c3ccco3)c2CO1,–,"inconclusive: 2.51 µM [rising, partial curve]"
CNc1cc(OC)c(C(=O)N[C@@H]2CCN(Cc3ccccc3)[C@H]2C)cc1Cl,inconclusive: -12.1%,–
O=C(NCc1nc2ccccc2[nH]1)c1ccc(Cl)c(S(=O)(=O)N2CCCC2)c1,–,"inconclusive: 0.1 µM [falling, full curve]"
CCOC(=O)CSc1nc2c(c(=O)n1-c1ccc(OC)cc1)SCC2,–,"inconclusive: 10 µM [rising, partial curve]"
CCCC12CN3CC(C)(CN(C1)C31CCCCC1)C2=O,inactive,–
CCOC(=O)c1ccc(COC(=O)c2nonc2N)cc1,inactive,–
N#Cc1c(C(F)(F)F)cc(-c2ccco2)nc1SCc1ccncc1,inactive,–

SMILES,"activity change, negative = inhibition",Potency
CCOc1ccc(NS(=O)(=O)c2ccc3[nH]cc(C(=O)NC(C)CC)c(=O)c3c2)cc1 (stereo not drawn),inconclusive: 4.81%,–
O=C(NC1(C(=O)NC2CCCCC2)CCCCC1)c1ccc2c(c1)OCO2,inconclusive: -11.3%,–
COCCN(CCOC)c1nc(C)nc2c1nc(-c1ccccc1)n2CCN(C)C,–,"inconclusive: 12.6 µM [rising, single point]"
Clc1ccccc1OCc1nn2c(-c3ccncc3)nnc2s1,–,"inconclusive: 10 µM [rising, partial curve]"
COCCn1c(=O)c(-c2ccc(F)cc2)nc2cnc(Oc3ccc(OC)cc3)nc21,inconclusive: 29%,–
Cc1cccc(/C=C\c2ccccc2)n1,inconclusive: -1.08%,–
COCCNC(=O)Cn1c(=O)n(Cc2ccc(C(=O)NCc3ccco3)cc2)c(=O)c2ccccc21,inactive,–
Cc1ccc(C2C(C(=O)c3cccs3)=C(O)C(=O)N2CCN2CCOCC2)o1 (stereo not drawn),–,"inconclusive: 5.01 µM [rising, partial curve, poor fit]"
C1COC1,inactive,–
CC(C)c1ccc2c(c1)CC[C@H]1[C@@](C)(CN)CCC[C@@]21C,inactive: 17.4% [at 7.6 µM],–
Cc1cc(C(=O)CSc2nc3ccccc3n2CCC#N)c(C)n1Cc1cccs1,–,"inconclusive: 5.01 µM [falling, single point]"
Nc1cc(=O)[nH]c(SCc2nc3ccccc3n2Cc2ccccc2)n1,inconclusive: -11.7% [at 7.6 µM],–
O=C(CCN1C(=O)c2ccccc2C1=O)Nc1ccc(-c2nc3ccccc3o2)cc1,inactive,–
CCNc1ncc2nc(-c3ccccc3)c(=O)n(Cc3ccc(F)cc3)c2n1,–,"inconclusive: 10 µM [rising, partial curve]"
CN(C)CCCc1cc(C(=O)Nc2ccc(-c3ccncc3)cc2)ccc1O,inconclusive: 3.29%,–
OCCN(Cc1ccccc1)Cc1ccccc1F,inconclusive: -3.38%,–
C/C(Nc1cccc(F)c1)=C(/C#N)C(N)=O,inconclusive: -1.48%,–
CCCn1c(C)nc2c(NCc3ccccc3)nc(C)nc21,–,active: 10 µM
CCCC(=O)Nc1cccc(-c2nc3cc(C)c(C)cc3o2)c1,inconclusive: 8.02% [at 7.6 µM],–
COc1ccc2[nH]c(=O)c(CN(C)C(=O)c3ccncc3)cc2c1,inactive,–
CCOC(=O)CC(=O)CSc1ccc2nnc(-c3ccc(C)cc3)n2n1,–,"inconclusive: 15.8 µM [rising, partial curve]"
CC[C@@H](CO)Nc1nc(NCc2ccccc2)c2ncn(C(C)C)c2n1,inconclusive: -15%,–

SMILES,"activity change, negative = inhibition",Potency
CC(C)CN(C#N)c1nc(N2CCOCC2)nc(N2CCOCC2)n1,inactive,–
CCC1CCCCN1C(=O)N[C@@H](Cc1ccccc1)C(=O)O (stereo partly drawn),inactive,–
Cc1ccccc1-c1cncnc1Nc1ccccc1,inactive,–
O=C(Nc1cnccn1)c1cccc(C(F)(F)F)c1,inactive,–
COCCN(CCOC)S(=O)(=O)c1ccc(C(=O)NCCCN2CCOCC2)cc1,inactive,–
O=c1c2c(nc3nc(CCc4ccccc4)[nH]n13)CCC2,inactive,–
Cn1cc(-c2nc3cnc(Oc4ccccc4)nc3n(CCC#N)c2=O)c2ccccc21,–,"inconclusive: 1.58 µM [rising, full curve]"
CCCCN1CSC(=S)N(Cc2ccccc2)C1,inconclusive: -2.07% [at 7.6 µM],–
COc1cccc(NC(=O)c2ccccc2-c2nc(-c3ccc(F)cc3)no2)c1,inactive,–
COCC(=O)Nc1nc2n(n1)C(c1ccc(Cl)cc1)CC(c1ccc(OC)cc1)N2 (stereo not drawn),–,"inconclusive: 25.1 µM [falling, single point]"
NC(=O)C[C@@H](N)c1nn[nH]n1,inactive: 0.439% [at 7.6 µM],–
O=C(NCCc1ccccc1)C1CCN(S(=O)(=O)c2cccc3nsnc23)CC1,inactive,–
COC(=O)c1sc(NC(=O)c2ccc(Cn3cc(Cl)cn3)o2)c(C#N)c1C,inconclusive: 24.2%,–
O=C(Nc1cccc(F)c1)N1CCC2(CC1)CCN(C(=O)c1cc(C(F)(F)F)cc(C(F)(F)F)c1)CC2,inactive,–
COc1ccccc1N(CC(=O)NC1CCCC1)C(=O)CCC(=O)Nc1cc(C)on1,inconclusive: 1.7%,–
CC(=O)NCCn1c(C)cc2ccccc21,–,"inconclusive: 10 µM [rising, single point]"
CCn1c2ccccc2c2nnc(SCC(=O)NCCOC)nc21,inconclusive: 97.6%,–
CCNc1nc(NCC)nc(OCCOC(=O)c2ccccc2)n1,–,"inconclusive: 12.6 µM [rising, partial curve]"
COc1cc(-c2n[nH]c(=O)o2)cc(OC)c1OC,inconclusive: 29.6%,–
COc1cccc(NC(=O)CSc2nnnn2C(C)C)c1,inactive,–
O=C(Nc1ccc2nc(-c3ccc(Br)o3)[nH]c2c1)c1ccco1,–,"inconclusive: 0.501 µM [rising, single point]"
CCOC(=O)C1CCN(CC(=O)c2c(C)[nH]c3cc(C)ccc23)CC1,inconclusive: 1.13%,–
